Test results taken from PubChem BioAssay AID1508642 (National Center for Advancing Translational Sciences (NCATS), 2021).
The whole screen tested about 43,000 compounds, of which about 200 (0.47%) were called active. About 12% were inconclusive and are not listed. The call rests on the fitted dose curve; in most records, active means well fitted cell-killing curve with a large enough effect; inconclusive means small, poorly fitted or top-dose-only effect, or effect the other way; inactive means flat fitted curve, though single readings scatter. Some of the results follow.

Assay: Cell viability qHTS assay in S16 Pmp22-F2sN cells; further: nearly all actives have a fitted effect of over 65% in size
Conditions: S16 Pmp22-F2sN Schwann cells (luciferase reporters placed in the Pmp22 gene) viability, CellTiter-Glo, 24 h; series mostly up to 57.5 µM; activity change, negative = cytotoxicity: at the top concentration
Outline: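 Rat S16 Schwann reporter line, 24 h treatment with library compounds delivered at 23 nL per well. Cell viability by CellTiter-Glo luminescence.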
On the % scale 0 is the no-effect control and ±100 the full control effect.

| Compound | activity change, negative = cytotoxicity |
| --- | --- |
| CCC1CCCCN1C(=O)Cn1c(=O)n(CCCCCC(=O)NCc2ccccc2Cl)c(=O)c2sccc21 (stereo not given) | inactive: 0.434% |
| Fc1ccccc1Nc1ncnc2c1nc1n2CCCCC1 | inactive: 23.8% |
| O=C(NCCc1ccc(Cl)cc1)c1ccc2c(c1)N(Cc1cccc(Cl)c1)C(=O)c1ccccc1S2(=O)=O | inactive: -19.1% |
| Cc1cccc(CCNC(=O)c2c[nH]c3ccc(S(=O)(=O)Nc4ccccc4F)cc3c2=O)c1 | inactive: -1.13% |
| CCC(=O)N1CCc2cc(Br)cc(S(=O)(=O)NCc3ccccc3)c21 | inactive: 8.26% |
| O=C(CCCCCn1c(=O)[nH]c2ccccc2c1=O)NCc1ccc(Cl)cc1 | inactive: -0.946% |
| COc1cc(NC(=O)CCNC(=O)Cn2cnc3ccccc3c2=O)cc(OC)c1OC | inactive: -2.26% |
| COc1ccc(CCn2c(=O)c3cccnc3n(CC(=O)Nc3c(C)cc(C)cc3C)c2=O)cc1OC | inactive: 4.72% |
| Cc1cc(C)c(NC(=O)Nc2csc3c2CCCC3)c(C)c1 | inactive: 3.32% |
| CCN(CC)C(=O)COc1ccc(-c2nnc(Nc3ccc(OC)c(C(=O)NC)c3)c3ccccc23)cc1 | inactive: -0.897% |
| Cc1sc2ncn(CC(=O)N(C)c3cccc(C(F)(F)F)c3)c(=O)c2c1S(=O)(=O)N1CCN(c2ncccn2)CC1 | inactive: 5.98% |
| Fc1ccc(-n2ncc3c(N4CCN(c5ccccc5F)CC4)ncnc32)cc1 | inactive: 0.888% |
| CSc1ccc(CCNC(=O)C2CCN(c3ncnc4c3nc3n4CCCCC3)CC2)cc1 | inactive: 14.7% |
| Cc1ccc(C2c3[nH]c4ccccc4c3CCN2C(=O)CCc2ccccc2)cc1 (stereo not given) | inactive: -4.46% |
| CCOc1ccc(CCNC(=O)C2CCN(Cc3nc(-c4ccccc4C)oc3C)CC2)cc1OCC | inactive: 8.91% |
| O=C(CC(NCc1cccnc1)C(=O)O)Nc1ccc(O)cc1 (stereo not given) | inactive: -0.333% |
| Fc1ccc(Nc2c(-c3ccco3)nc3ccccn23)cc1 | inactive: -8.81% |
| Cn1c(=O)c(=O)n(C)c2cc(S(=O)(=O)Nc3ccc(Cl)c(C(F)(F)F)c3)ccc21 | inactive: 10.4% |
| COc1cc(OC)c(NC(=O)Cn2cnc3nc4c(cc3c2=O)CCCC4)cc1Cl | inactive: -1.7% |
| Cc1cc(=O)oc2cc(OCC(=O)Nc3c(C(C)C)cccc3C(C)C)ccc12 | inactive: -2.22% |

| Compound | activity change, negative = cytotoxicity |
| --- | --- |
| Clc1ccc(-c2nnn3c2nc(NCc2ccc4c(c2)OCO4)c2ccccc23)cc1 | inactive: 9.08% |
| CC(C)(C)c1ccc(C(=O)N2CCN(Cc3cc(=O)n4nc(-c5ccccc5F)sc4n3)CC2)cc1 | inactive: 12.4% |
| Cc1ccc(NC(=O)C2CCC(CNS(=O)(=O)c3ccc4c(c3)C(C)(C)C(=O)N4C)CC2)cc1 (stereo not given) | inactive: 19.6% |
| CCCCNC(=O)CC1N=C2c3ccccc3N=C(SCC(=O)NCc3ccccc3Cl)N2C1=O (stereo not given) | inactive: 4.61% |
| COc1cccc(C(=O)Nc2cccc(OCc3cc(=O)n4cccc(C)c4n3)c2)c1 | inactive: 12.2% |
| Cc1ccc(NC(=O)CCC(=O)N2CCSc3ccccc32)cc1 | inactive: 0.613% |
| Cc1cnc2c(c1SCC(=O)NCc1ccccc1Cl)c(=O)n(C)c(=O)n2C | inactive: 6.28% |
| CC(C)(Oc1ccc(Cl)cc1)C(=O)Nc1nnc2n1CCS2 | inactive: 9.96% |
| Cc1ccn2c(Nc3ccccc3C)c(-c3cccnc3)nc2c1 | inactive: -25.5% |
| Clc1ccc(-c2noc(-c3cccnc3N3CCN(c4ccccc4)CC3)n2)cc1 | inactive: 7.85% |
| O=C(COc1ccccc1)Nc1nnc(SCc2cc(=O)c3ccccc3[nH]2)s1 | inactive: 0.855% |
| CCOc1ccc(NC(=O)Cn2cc(C(=O)c3ccccc3)c(=O)c3cc4c(cc32)OCCO4)cc1 | inactive: 11.3% |
| Cc1ccc(C)c(N2CCN(C(=O)c3nn(C)c4c3CS(=O)(=O)c3ccccc3-4)CC2)c1 | inactive: -12.2% |
| Nc1ccc(S(=O)(=O)NC2(C(F)(F)F)NC(=O)N(c3cccc(Cl)c3)C2=O)cc1 (stereo not given) | inactive: 7.45% |
| O=c1c2ccccc2nc(N2CCN(c3cccc(Cl)c3)CC2)n1-c1ccccc1 | inactive: -6.87% |
| O=C(Nc1ccccc1C(F)(F)F)N1CCC2(CC1)Oc1ccccc1C(=O)N2Cc1ccccc1F | inactive: -0.0363% |
| CCCCOc1ccc(C(=O)Nc2nc3c(s2)CC(C)CC3)cc1 (stereo not given) | inactive: 8.49% |
| COCCNC(=O)c1ccc2c(c1)N(Cc1c(F)cccc1Cl)C(=O)c1ccccc1S2 | inactive: 14.3% |
| CCOC(=O)c1c(C)oc2nc(C)nc(NCc3ccc(OC)cc3)c12 | inactive: 4.36% |
| COC(=O)c1cccc(CN2C(=O)SC(Nc3ccc(Cl)cc3)C2=O)c1 (stereo not given) | inactive: -16% |

| Compound | activity change, negative = cytotoxicity |
| --- | --- |
| CCOC(=O)c1noc2ncnc(Nc3cccc(C(F)(F)F)c3)c12 | inactive: -13.2% |
| COc1ccccc1N1CCN(S(=O)(=O)c2c(C)sc3ncn(CC(=O)NCCN(C)C)c(=O)c23)CC1 | inactive: 0.802% |
| COc1ccc(OC)c(NC(=O)CSC2=Nc3ccccc3C3=NC(CCC(=O)NCCc4ccccc4)C(=O)N23)c1 (stereo not given) | inactive: 6.97% |
| O=C(NCCC1=CCCCC1)c1ccc2c(c1)N(Cc1ccc(Cl)cc1)C(=O)c1ccccc1S2(=O)=O | inactive: -0.462% |
| CCc1ccc(N2C(=O)N(CC(=O)C(C)(C)C)c3ccccc3S2(=O)=O)cc1 | inactive: 6.49% |
| Cc1nnc(NCc2ccc(F)cc2)c2c1nnn2Cc1ccccc1Cl | inactive: 10.5% |
| CCOc1ccc(NC(=O)CCn2nc(C)c(S(=O)(=O)N3CCCCC3)c2C)cc1 | inactive: -16% |
| Cc1c(Cl)cccc1NC(=O)Cn1cnc(S(=O)(=O)N2CCCC2)c1 | inactive: 1.53% |
| COc1ccc(CCNC(=O)Cn2nc(C)c3c(C)n(-c4ccc(C)cc4)nc3c2=O)c(OC)c1 | inactive: 3.82% |
| COc1ccc(NC(=O)c2oc3ccccc3c2NC(=O)COc2ccc(F)cc2)c(OC)c1 | inactive: 17.6% |
| CCCNc1nc2c(c(=O)n(C)c(=O)n2C)n1CC(O)COc1ccccc1 (stereo not given) | inactive: -0.676% |
| Cc1ccc(NC(=O)Cn2cc(C(=O)C3CCCCC3)c3ccccc32)c(C)c1 | inactive: -26.7% |
| Cc1cccc(C(=O)Nc2nnc(S(=O)(=O)N3CCCc4ccccc43)s2)c1 | inactive: -1.91% |
| Cn1c(=O)n(C)c2cc(NS(=O)(=O)c3ccc(C(C)(C)C)cc3)c(NCc3ccccc3)cc21 | inactive: -5.91% |
| CCOc1ccc(NC(=O)CCNS(=O)(=O)c2cccc3nsnc23)cc1 | inactive: 21.5% |
| CCc1cccc(C)c1NC(=O)C(CC)Sc1nncn2c1cc1occc12 (stereo not given) | inactive: -14.1% |
| CCC(=O)Nc1cc(-c2nc3ccccc3s2)c(Cl)cc1Cl | inactive: -4.2% |
| Cc1ccc(Nc2nc(C)c(NC(=O)c3ccc(C)cc3)c(Nc3ccc(C)cc3)n2)cc1 | inactive: 1.24% |
| CCOc1ccc(C(=O)Nc2ccc3oc(-c4ccncc4)nc3c2)cc1 | inactive: 2.6% |
| CCS(=O)(=O)N1CCc2cc(C(=O)Nc3cc(OC)c(Cl)cc3OC)ccc21 | inactive: 1.62% |
